Experimental data taken from PubChem BioAssay AID1030 (National Center for Advancing Translational Sciences (NCATS), 2008).
In all, about 220,000 compounds went through this assay and about 16,000 (7.3%) were called active. Inconclusive results, whose numbers are uncertain, are shown with a selection of clear calls. Calls follow the shape of the dose curve; as a rule, active = well fitted inhibition curve with a large enough effect (not every such curve was filed as active); inconclusive = small, poorly fitted or top-dose-only effect, or another doubt; inactive = no such curve, though single readings can be large or run the other way. Potencies of inconclusive entries are doubtful fits and often do not repeat.

Each compound was assayed against Aldehyde dehydrogenase 1A1 (Homo sapiens) (UniProt P00352) (assay: qHTS Assay for Inhibitors of Aldehyde Dehydrogenase 1 (ALDH1A1)). Settings: Purified ALDH1A1, NADH fluorescence, propionaldehyde substrate; series mostly up to 75.3 µM.
Potency is read from the fitted curve at half-maximal effect; tags tell the direction and shape of the fitted curve.

Chain of UniProt P00352 (P00352 whole entry, looked up): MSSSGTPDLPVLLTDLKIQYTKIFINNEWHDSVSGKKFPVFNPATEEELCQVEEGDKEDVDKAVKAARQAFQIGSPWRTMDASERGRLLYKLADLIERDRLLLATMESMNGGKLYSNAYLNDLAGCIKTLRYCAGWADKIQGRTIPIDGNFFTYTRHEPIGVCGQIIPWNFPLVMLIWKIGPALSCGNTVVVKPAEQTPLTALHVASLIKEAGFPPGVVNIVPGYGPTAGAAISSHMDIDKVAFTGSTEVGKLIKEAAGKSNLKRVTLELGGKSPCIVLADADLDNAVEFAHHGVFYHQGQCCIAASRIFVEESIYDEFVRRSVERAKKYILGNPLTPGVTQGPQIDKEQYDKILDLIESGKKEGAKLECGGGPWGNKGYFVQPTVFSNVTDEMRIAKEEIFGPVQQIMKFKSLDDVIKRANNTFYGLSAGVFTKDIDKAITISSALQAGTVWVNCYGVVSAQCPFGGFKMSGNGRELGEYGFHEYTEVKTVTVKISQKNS

Potency, inconclusive:
CCn1c(CNc2ccc(C)cc2)nnc1SCC(=O)NCc1ccccc1 31.6 µM [inhibitor, single point], Cc1ccc(S(=O)(=O)CCC(=O)OCc2ccccc2F)cc1 20 µM [inhibitor, single point], COc1ccc(CN2C(=O)CSC2c2ccccn2)cc1 (configuration not stated) 39.8 µM [inhibitor, single point], COCC(=O)N1CCC2(CCCN(c3ccc(-c4ccccc4)cc3)C2)CC1 39.8 µM [inhibitor, single point], COc1cc(NC(=O)COC(=O)/C=C/c2ccc(OC)c(OC)c2)cc(OC)c1 39.8 µM [inhibitor, single point], Cc1ccccc1Cn1cc(NC(=O)c2cc(-c3ccco3)on2)cn1 3.98 µM [inhibitor, full curve], Cc1ccccc1NC(=S)NCc1ccc2[nH]c3c(c2c1)CCCC3 35.5 µM [inhibitor, single point], NNC(=O)c1cc(Cl)ccc1Cl 35.5 µM [inhibitor, single point], O=S(=O)(c1ccc(F)cc1)N1CCN(c2ncnc3c2cnn3-c2ccccc2)CC1 39.8 µM [inhibitor, single point], CCCCc1c(O)c2ccccc2[nH]c1=O 39.8 µM [inhibitor, single point], C#C[C@]1(O)CC[C@@H]2[C@H]3CCC4=CCCC[C@@H]4[C@@H]3CC[C@@]21C 15.8 µM [inhibitor, single point], O=C(CN1CCCCCCC1)Nc1ccc(Cl)cc1Cl 39.8 µM [inhibitor, single point], Cc1ccccc1OCCCC(=O)Nc1ccc2c(c1)OCO2 5.62 µM [inhibitor, partial curve], O=C(O)c1ccccc1NCc1ccncc1 31.6 µM [inhibitor, single point], COc1ccc(-c2nc3cnc(N(C)C)nc3n(C)c2=O)cc1 25.1 µM [inhibitor, partial curve], Cc1ccc(-n2c(-c3ccco3)nc3nc4ccccc4nc32)cc1F 35.5 µM [inhibitor, partial curve], O=C(CNCc1cccc2ccccc12)Nc1ccccc1[N+](=O)[O-] 39.8 µM [inhibitor, single point], CCNC(=O)/C(C#N)=C/c1c(N2CCOCC2)nc2ccccn2c1=O 25.1 µM [inhibitor, partial curve], CCCCc1ccc(NC(=S)Nc2ccc(Cl)c(S(=O)(=O)N(C)C)c2)cc1 35.5 µM [inhibitor, single point], CCN(C(=O)c1cnc(NC(C)C)cc1C(F)(F)F)c1ccc(Cl)cc1 31.6 µM [inhibitor, partial curve], C=C1CSc2nc3ccccc3c(=O)n21 39.8 µM [inhibitor, single point], O=C(O)Cc1sc(Nc2ccccc2)nc1-c1ccc(Cl)cc1 39.8 µM [inhibitor, single point], COc1cc(OC)cc(C(=O)Nc2c(F)cccc2F)c1 39.8 µM [inhibitor, single point], CC1(C)CC(=O)c2cc(OCC(=O)NCc3cccnc3)ccc2O1 28.2 µM [inhibitor, partial curve], C=CCNC(=O)/C(C#N)=C/c1c(C)nn(-c2ccccc2)c1Cl 7.08 µM [inhibitor, partial curve, poor fit], COc1ccccc1OCC(=O)Nc1ccc(O)cc1C(=O)O 44.7 µM [inhibitor, single point], CCOc1ccccc1Nc1cc(C)nc2nnnn12 35.5 µM [inhibitor, partial curve], Cc1ccc(N2C(=O)[C@@H]3[C@H](C2=O)C2CCCN2[C@@H]3C(=O)c2ccccc2)cc1 (some centres not stated) 25.1 µM [inhibitor, single point], COC(=O)c1ccccc1NC(=O)C12CCC(C)(C(=O)O1)C2(C)C (configuration not stated) 1.78 µM [inhibitor, partial curve], Cc1ccc(-c2nc3c(=O)n(C)c4ccccc4c3o2)cc1 11.2 µM [inhibitor, partial curve], O=C(Nc1ccc(Cl)c(Cl)c1)N(Cc1cccnc1)Cc1ccco1 39.8 µM [inhibitor, single point], Cc1cc(/C=N/NC(=O)c2ccccc2F)c(C)n1-c1ccccc1 39.8 µM [inhibitor, single point], CCOc1ccc2[nH]c(=O)c(CN(CCCN3CCOCC3)Cc3nnnn3Cc3ccc(OC)cc3)cc2c1 35.5 µM [inhibitor, single point], CN(C)S(=O)(=O)c1ccc(C(=O)Nc2nnc(SCc3cccc4ccccc34)s2)cc1 31.6 µM [inhibitor, single point], COc1cccc(CNc2cnc3ccccc3c2)c1O 28.2 µM [inhibitor, single point], CC(C(=O)N1CCN(Cc2ccc3c(c2)OCO3)CC1)c1ccc([N+](=O)[O-])cc1 (configuration not stated) 14.1 µM [inhibitor, partial curve, poor fit], CNc1nc(SC)nc(N(C#N)CC(=O)OC)n1 14.1 µM [inhibitor, single point], COc1ccc(OCC(=O)c2c(O)c3ccccc3oc2=O)cc1 39.8 µM [inhibitor, single point], COC(=O)c1cnc2c(c1C(=O)OC)c(=O)n(C)c(=O)n2C 39.8 µM [inhibitor, single point], Cc1ccccc1CNC(=O)CCc1ccccc1 39.8 µM [inhibitor, single point], O=C(NCCCn1ccnc1)C(=O)NCC1OCCCN1S(=O)(=O)c1ccccc1 (configuration not stated) 35.5 µM [inhibitor, single point], Cn1c(N)c(C(=O)COC(=O)C2CCC(C(C)(C)C)CC2)c(=O)n(C)c1=O (configuration not stated) 17.8 µM [inhibitor, single point], COc1ccc(C(=O)Nc2ccc(S(=O)(=O)NC(C)=O)cc2)cc1[N+](=O)[O-] 28.2 µM [inhibitor, single point], Cc1cccc(N2C(=O)CC(N(O)c3ccccc3)C2=O)c1 (configuration not stated) 31.6 µM [inhibitor, single point], Cc1ccccc1Cn1cc(S(=O)(=O)CC(=O)Nc2nccs2)c2ccccc21 39.8 µM [inhibitor, single point], CCN(CC)S(=O)(=O)c1ccc(C)c(NC(=O)COC(=O)CNC(=O)c2ccc(C(C)(C)C)cc2)c1 20 µM [inhibitor, partial curve, poor fit]

Potency, active:
COc1cc(NC(=S)NC(=O)c2ccc(C(C)(C)C)cc2)ccc1NC(=O)c1cccs1 11.9 µM, COc1ccc(O)c(-c2[nH]ncc2C(=O)c2ccccc2)c1 7.94 µM, COc1cccc(-n2nc(-c3ccnn3-c3ccc(C)cc3)c(=O)n(C)c2=O)c1 39.8 µM, C=CCOC(=O)C1=C[C@@H](c2csc3ccccc23)C[C@@H](OCc2ccc(CO)cc2)O1 25.1 µM, c1ccc2[nH]c(SN3CCOCC3)nc2c1 0.794 µM, CC(=O)c1cc(C(=O)Nc2ccccc2C(=O)O)oc1C 0.708 µM, CN(c1ccccc1)S(=O)(=O)c1cccc(C(=O)Nc2ccc3c(c2)CCC3)c1 10 µM, CC(C)C1C(C#N)=C(N)SC(N)=C1C#N 8.91 µM, CCOc1ccccc1/C=c1\sc2nc(-c3ccco3)nn2c1=O 28.2 µM

Potency, inactive:
Oc1cccc(Oc2ncc(C(F)(F)F)cc2Cl)c1, COc1cc(-c2nc3ccccc3c(=O)n2N)cc(OC)c1OC, COc1ccc(C2Nc3ccccc3C(=O)N2c2ccc(C)cc2)cc1Cn1nnc2ccccc21 (configuration not stated), COc1cccc(Cn2nnc(C(=O)NCc3ccc(F)cc3)c2N)c1, O=C(O)CNC(=O)/C=C/c1ccc(Cl)cc1Cl, CSc1ccc2c(c1)N(CC[C@H]1CCCCN1C)c1ccccc1S2, Cc1nc(SCC(=O)O)n[nH]1, CC(=O)N1CCN(CC(=O)Nc2cc(S(=O)(=O)N3CCOCC3)ccc2C)CC1, CCC(C)(C)NC(=O)/C=C/c1cnc2ccccc2n1, CC1Cc2ccccc2N1C(=S)NC(=O)c1ccc(Cl)cc1Cl (configuration not stated), CCN(C(=O)CSc1cc(C)c2cccc(C)c2n1)C1CCS(=O)(=O)C1 (configuration not stated), CC(C)CNC(=S)NC1CCCC1, C[C@H]1CC[C@H]2C(=O)N[C@H](Cc3ccccc3)C(=O)N2[C@@H]1c1ccccc1, COCC[N+]1(C)CCCCC1, Cc1c(Cl)cnc(NC(=O)COC(=O)c2ccc(S(=O)(=O)NCc3ccco3)cc2)c1Cl, CN(C)/N=C/c1ccc(OC(=O)c2cccc([N+](=O)[O-])c2)cc1, Cc1cc(-c2n[nH]c(=S)n2/N=C/C=C/c2ccccc2)n[nH]1
